Source: PMC2799460 (Environmental Health Perspectives, 2009)

Tests used:
[1] = molecular target: T1, type 1 ryanodine receptor (RyR1) (Oryctolagus cuniculus, UniProt P11716); type: binding, rabbit; details: 5 μM compound
T1 construct: Membranes enriched in ryanodine receptors (RyRs) were obtained either from adult rabbit skeletal muscle; from tissue; host or cells: adult rabbit skeletal muscle membranes

[2] = molecular target: type 2 ryanodine receptor (RyR2) (Rattus norvegicus, UniProt B0LPN4); assay: [3H]Ry binding to RyR2 (ventricular muscle membranes); details: 5 μM compound
Chain of UniProt B0LPN4 (B0LPN4 whole entry): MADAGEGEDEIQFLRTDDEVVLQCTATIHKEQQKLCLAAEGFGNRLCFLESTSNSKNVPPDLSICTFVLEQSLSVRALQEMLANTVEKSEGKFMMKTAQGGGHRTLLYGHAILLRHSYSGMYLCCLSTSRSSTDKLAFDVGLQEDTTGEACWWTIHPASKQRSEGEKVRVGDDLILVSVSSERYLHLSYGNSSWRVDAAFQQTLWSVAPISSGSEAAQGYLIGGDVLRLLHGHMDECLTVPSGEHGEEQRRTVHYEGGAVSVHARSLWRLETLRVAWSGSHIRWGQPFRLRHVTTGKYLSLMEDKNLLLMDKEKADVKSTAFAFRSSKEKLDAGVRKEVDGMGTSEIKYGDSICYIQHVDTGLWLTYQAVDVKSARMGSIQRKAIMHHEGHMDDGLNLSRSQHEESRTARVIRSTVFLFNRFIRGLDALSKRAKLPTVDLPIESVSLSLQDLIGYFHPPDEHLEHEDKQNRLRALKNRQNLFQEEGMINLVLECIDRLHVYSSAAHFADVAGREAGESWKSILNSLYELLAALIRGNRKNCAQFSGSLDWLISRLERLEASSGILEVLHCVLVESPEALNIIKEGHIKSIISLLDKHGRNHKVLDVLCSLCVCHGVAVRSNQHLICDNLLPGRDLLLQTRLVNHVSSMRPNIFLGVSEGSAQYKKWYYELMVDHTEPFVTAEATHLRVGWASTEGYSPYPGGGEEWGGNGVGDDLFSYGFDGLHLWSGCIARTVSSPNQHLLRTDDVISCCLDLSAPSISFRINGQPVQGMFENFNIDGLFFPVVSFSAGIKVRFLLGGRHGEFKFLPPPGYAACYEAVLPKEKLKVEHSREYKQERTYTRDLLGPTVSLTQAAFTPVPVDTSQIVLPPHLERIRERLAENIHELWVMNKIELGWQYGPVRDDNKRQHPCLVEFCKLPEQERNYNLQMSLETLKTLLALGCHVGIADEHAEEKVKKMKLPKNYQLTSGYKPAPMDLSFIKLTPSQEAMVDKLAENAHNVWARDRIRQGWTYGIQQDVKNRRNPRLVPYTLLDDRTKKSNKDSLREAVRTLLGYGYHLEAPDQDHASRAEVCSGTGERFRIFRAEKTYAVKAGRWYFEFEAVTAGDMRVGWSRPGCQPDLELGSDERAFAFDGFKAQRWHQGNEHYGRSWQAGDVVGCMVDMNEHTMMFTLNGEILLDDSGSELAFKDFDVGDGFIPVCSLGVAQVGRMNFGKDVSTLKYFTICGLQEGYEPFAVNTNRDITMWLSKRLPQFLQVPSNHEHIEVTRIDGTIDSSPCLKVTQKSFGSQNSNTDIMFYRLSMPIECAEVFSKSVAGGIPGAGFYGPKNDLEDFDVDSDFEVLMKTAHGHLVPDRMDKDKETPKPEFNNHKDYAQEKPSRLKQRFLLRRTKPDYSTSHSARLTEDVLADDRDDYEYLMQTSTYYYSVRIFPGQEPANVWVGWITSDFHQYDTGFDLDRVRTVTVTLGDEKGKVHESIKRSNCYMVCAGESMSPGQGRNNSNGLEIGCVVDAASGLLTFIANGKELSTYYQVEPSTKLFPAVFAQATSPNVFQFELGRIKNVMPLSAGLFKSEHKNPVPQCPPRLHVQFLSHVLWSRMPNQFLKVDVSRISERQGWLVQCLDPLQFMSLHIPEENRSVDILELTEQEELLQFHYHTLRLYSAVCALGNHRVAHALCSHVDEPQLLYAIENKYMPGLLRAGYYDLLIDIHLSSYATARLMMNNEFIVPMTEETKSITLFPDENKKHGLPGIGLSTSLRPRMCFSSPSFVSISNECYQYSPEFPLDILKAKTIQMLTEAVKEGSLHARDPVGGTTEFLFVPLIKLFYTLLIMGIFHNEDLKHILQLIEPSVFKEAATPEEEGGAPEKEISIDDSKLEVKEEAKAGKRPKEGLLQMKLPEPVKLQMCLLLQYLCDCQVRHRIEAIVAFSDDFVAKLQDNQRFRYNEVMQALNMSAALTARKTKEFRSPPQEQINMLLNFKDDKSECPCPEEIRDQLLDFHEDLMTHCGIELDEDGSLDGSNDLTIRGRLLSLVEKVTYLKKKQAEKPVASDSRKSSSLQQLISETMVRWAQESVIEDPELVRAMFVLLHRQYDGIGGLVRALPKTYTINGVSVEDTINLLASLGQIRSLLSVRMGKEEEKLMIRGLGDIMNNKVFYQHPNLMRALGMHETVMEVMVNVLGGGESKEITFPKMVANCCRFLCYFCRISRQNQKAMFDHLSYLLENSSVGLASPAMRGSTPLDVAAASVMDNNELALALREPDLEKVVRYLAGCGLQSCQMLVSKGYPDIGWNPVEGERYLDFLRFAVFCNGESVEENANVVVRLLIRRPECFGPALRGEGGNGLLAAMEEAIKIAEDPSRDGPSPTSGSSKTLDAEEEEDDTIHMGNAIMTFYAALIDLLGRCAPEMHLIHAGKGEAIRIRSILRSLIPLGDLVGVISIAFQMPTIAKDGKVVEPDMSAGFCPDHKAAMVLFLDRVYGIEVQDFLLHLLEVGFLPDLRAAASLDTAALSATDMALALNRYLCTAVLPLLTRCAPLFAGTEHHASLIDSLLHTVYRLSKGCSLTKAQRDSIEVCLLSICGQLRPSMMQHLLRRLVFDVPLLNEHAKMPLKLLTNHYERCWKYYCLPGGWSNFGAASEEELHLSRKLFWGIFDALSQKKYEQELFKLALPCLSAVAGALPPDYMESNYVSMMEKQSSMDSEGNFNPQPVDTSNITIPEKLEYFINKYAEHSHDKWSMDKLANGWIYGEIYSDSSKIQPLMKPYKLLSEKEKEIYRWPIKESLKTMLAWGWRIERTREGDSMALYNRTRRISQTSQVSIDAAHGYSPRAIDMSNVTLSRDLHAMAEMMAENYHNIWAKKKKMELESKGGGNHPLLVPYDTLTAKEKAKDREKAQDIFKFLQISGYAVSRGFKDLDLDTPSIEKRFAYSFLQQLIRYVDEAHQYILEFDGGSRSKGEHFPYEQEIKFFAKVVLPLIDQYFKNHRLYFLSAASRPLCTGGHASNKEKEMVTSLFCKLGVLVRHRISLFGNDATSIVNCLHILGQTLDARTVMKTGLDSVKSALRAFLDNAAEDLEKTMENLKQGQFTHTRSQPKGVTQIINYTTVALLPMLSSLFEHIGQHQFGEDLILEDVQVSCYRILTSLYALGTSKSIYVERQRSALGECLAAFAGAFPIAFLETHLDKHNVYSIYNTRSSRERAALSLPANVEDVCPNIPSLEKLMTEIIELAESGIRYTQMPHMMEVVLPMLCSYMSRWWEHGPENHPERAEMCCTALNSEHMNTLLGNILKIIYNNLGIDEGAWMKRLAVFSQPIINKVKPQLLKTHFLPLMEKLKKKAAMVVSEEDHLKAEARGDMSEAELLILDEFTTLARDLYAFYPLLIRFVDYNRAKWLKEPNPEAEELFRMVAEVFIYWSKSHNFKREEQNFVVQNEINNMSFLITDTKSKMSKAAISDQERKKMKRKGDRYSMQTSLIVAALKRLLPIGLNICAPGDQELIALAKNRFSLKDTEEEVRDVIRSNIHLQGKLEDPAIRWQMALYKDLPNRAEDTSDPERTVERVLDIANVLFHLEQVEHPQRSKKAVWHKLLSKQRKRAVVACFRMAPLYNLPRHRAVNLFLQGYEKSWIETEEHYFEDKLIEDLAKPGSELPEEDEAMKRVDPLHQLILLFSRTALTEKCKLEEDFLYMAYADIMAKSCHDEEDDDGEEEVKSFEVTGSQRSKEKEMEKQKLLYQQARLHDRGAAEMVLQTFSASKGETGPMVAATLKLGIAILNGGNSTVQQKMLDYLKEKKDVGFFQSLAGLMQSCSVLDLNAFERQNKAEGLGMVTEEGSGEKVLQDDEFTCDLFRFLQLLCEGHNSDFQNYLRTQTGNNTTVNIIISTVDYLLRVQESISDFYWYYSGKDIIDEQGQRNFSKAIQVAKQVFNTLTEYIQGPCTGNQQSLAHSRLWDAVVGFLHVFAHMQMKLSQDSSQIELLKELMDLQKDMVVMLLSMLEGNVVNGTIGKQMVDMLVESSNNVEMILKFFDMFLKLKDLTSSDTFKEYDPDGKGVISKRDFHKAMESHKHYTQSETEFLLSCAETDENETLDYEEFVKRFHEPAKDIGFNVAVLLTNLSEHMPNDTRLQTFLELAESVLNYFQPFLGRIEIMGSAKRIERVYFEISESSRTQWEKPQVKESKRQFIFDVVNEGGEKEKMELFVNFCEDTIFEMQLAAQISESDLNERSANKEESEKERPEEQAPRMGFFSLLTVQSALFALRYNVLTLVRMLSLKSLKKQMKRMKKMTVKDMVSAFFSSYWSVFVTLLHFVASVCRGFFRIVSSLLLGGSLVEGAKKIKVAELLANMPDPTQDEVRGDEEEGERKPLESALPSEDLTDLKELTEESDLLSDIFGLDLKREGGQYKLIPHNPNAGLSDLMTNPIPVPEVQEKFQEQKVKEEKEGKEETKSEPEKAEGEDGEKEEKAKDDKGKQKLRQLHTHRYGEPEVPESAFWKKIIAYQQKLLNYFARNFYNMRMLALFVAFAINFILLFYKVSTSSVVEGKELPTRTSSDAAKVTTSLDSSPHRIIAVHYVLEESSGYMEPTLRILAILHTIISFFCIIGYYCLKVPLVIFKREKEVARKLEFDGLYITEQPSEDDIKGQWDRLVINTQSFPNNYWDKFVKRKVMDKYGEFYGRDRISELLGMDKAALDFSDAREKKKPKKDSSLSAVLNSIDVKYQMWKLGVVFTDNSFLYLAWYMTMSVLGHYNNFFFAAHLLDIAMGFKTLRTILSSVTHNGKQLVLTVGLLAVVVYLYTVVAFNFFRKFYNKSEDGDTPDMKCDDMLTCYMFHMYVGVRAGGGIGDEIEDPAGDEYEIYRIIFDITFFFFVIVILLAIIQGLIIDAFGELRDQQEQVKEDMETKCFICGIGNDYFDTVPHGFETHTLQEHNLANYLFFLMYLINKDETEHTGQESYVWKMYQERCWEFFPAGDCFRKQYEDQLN

[3] = molecular target: T2, human carboxylesterase CES3 (Homo sapiens, UniProt Q6UWW8); assay: human CES3 enzyme inhibition assay (CMNA substrate); type: biochemical; details: recombinant partially purified enzyme, CMNA 50 μM, counterscreen; mean ± SD
T2 construct: made in house; host or cells: baculovirus-insect cells
T2 sequence (Q6UWW8 27-571): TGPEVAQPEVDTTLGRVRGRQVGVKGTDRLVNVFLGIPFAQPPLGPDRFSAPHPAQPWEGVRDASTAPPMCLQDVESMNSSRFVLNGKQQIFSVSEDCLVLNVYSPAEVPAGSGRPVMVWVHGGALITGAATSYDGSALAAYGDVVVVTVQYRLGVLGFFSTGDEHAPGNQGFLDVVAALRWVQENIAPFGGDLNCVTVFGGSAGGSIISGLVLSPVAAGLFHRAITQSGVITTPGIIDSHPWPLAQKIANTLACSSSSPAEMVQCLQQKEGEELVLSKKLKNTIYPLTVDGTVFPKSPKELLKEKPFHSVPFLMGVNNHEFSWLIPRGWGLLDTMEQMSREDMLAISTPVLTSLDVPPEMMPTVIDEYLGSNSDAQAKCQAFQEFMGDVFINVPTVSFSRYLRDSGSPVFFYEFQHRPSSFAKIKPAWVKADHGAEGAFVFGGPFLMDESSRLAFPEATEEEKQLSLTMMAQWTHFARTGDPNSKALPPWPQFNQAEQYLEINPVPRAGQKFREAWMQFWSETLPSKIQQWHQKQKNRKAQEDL

[4] = molecular target: T3, human carboxylesterase CES2 (Homo sapiens, UniProt O00748); assay: biochemical
T3 construct: made in house; host or cells: baculovirus-insect cells
T3 sequence (O00748 27-559): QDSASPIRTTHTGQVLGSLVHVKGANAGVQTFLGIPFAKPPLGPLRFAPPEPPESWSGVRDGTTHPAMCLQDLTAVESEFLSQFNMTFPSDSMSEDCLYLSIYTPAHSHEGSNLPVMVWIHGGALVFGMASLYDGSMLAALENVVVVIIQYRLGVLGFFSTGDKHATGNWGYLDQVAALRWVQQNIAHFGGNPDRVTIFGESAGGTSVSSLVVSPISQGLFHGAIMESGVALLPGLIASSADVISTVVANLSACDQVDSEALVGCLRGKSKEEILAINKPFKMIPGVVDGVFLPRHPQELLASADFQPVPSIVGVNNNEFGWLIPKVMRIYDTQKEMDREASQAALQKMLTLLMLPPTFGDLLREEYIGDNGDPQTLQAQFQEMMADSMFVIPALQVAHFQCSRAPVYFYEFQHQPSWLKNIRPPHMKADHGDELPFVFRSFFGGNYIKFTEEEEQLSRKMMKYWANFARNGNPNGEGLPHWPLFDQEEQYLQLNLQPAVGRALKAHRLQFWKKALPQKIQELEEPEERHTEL

[5] = molecular target: T1, type 1 ryanodine receptor (RyR1); design: method as in Ahn et al. 2008; details: previously shown; ref Ahn et al. 2008; cited from earlier work

O=S(=O)(NC1CCCCC1)c1nc2ccccc2s1 [N-cyclohexyl-2-benzothiazyl sulfonamide]
effect on [3H]Ry binding to RyR1 (counterscreen) [1]: no significant effect
effect on [3H]Ry binding to RyR2 (counterscreen) [2]: no significant effect

COC(=O)C=C(C)OP(=O)(OC)OC [Phosdrin, phosdrin]
IC50 [3]: 1.1 ± 0.1 nM

CCOP(=S)(OCC)Oc1cc(C)nc(N(CC)CC)n1 [Primiphos-ethyl]
IC50 [3]: 180 ± 20 nM

O=P(Oc1ccccc1)(Oc1ccccc1)Oc1ccccc1 [TPP, triphenyl phosphate]
IC50 [4]: 50 ± 2 nM

Oc1cc(Cl)ccc1Oc1ccc(Cl)cc1Cl [Triclosan, triclosan]
effect on [3H]Ry binding to RyR1 (earlier work) [5]: increase

CC1(C)C(C=C(Cl)Cl)C1C(=O)OC(C#N)c1ccc(F)c(Oc2ccccc2)c1 (stereo not shown) [baythroid]
effect on [3H]Ry binding to RyR1 (counterscreen) [1]: no significant effect
effect on [3H]Ry binding to RyR2 (counterscreen) [2]: no significant effect

CC1(C)[C@H](C(=O)O[C@H](C#N)c2cccc(Oc3ccccc3)c2)[C@@H]1C=C(Br)Br [deltamethrin]
effect on [3H]Ry binding to RyR2 (counterscreen) [2]: no significant effect

CC1(C)C(C=C(Cl)Cl)C1C(=O)OC(C#N)c1cccc(Oc2ccccc2)c1 (stereo not drawn) [α-cypermethrin]
effect on [3H]Ry binding to RyR2 (counterscreen) [2]: no significant effect
